{"source": "the supplement of paper PMC12632987", "binders": {"B1": {"name": "GBRAP_26_5499 (protein)", "chain": "MEEALDKALERVHAALDELLSPELARLAKAEVDTEFEELEEEIEKNKNDMEKIKKAIEEMLEEILEALRLLGVPEETLEKLEKRFKEIAKELIEELEKLM"}, "B2": {"name": "GBRAP_153_3952 (protein)", "chain": "SAEREARIAEAVALARAAEAAGGDPALIAAAAALLATLDEEELEEVGERIRGLSPELIGRLVLTALTEAGLSAEGALALASKLDEEQELAVLDAIVEAAK"}, "B3": {"name": "GBRAP_83_6978 (protein)", "chain": "AEEIVVAAPADRIEEAVEIAIDLHKEEGYDVTLEILTTPEQLDKVLEAVERLIKEIKDIEIEVYIEGGTAEQAAALEARLKAIAAAAGANPKITVHLDEP"}, "B4": {"name": "GBRAP_52_5947 (protein)", "chain": "SLEEAKELLEKALEAVLAGKREEARKILKELVENFSLETIKEAAIELAKELADADDETLEAFVELLDLLRDELIEAGVPEDEALLVEGEAAAELAKERTK"}, "B5": {"name": "GBRAP_52_6071 (protein)", "chain": "MEEKIEELAEKITEAIEEGDLEEALELIEEAIKELSKEEIKKLLVLTAKLVAELSEEAHEKFVDLLTEAEDLLEKAGISEEDALVIVGDAEAALAKEVAK"}, "B6": {"name": "GBRAP_166_4922 (protein)", "chain": "SIEEKVKEARERLKKVIEEGKADPSLTKGQITVDMAYETAEMLKSEKDRETKLAIVREGLKLAKEEGLDPRRLATLTASLYGFSDEEREEIDKIVKEILA"}, "B7": {"name": "GBRAP_52_6253 (protein)", "chain": "MRARMRALAERALALALAGDEAALRALLEAFAATADEEEVRLWIAEVAELARAAPLEDADAVWRLAELAAEALEAAGKPEILVDDLEAAVAAALYEVEQR"}, "B8": {"name": "GBRAP_52_6010 (protein)", "chain": "MREELKKKLEEALELVKEGKEEEARKLVKELVESLNDEEIELLIELLAEMAKKAKPEDFDAVWKLAEIVAEEMEELGKDEELADLLLARVAAALYEAEQA"}, "B9": {"name": "GBRAP_184_5170 (protein)", "chain": "MIEEFEIEVENEEEAEKKMEEIKEAVKGKKAELYVLVKAPEITEEIAKTILEKLKEIKDEGYATKITVDFEGEVDEEVMDVLVEGGKEAGINVVIALPEE"}, "B10": {"name": "GBRAP_80_6844 (protein)", "chain": "DEEALKKALEELEKLLPESAEDIKEIVELARSLGIPNSVITDLLNAIAELAKVDKEKAKEFIKELLEELKELLEEGDEEGAKTLIRASAGEALMEAEELE"}, "B11": {"name": "GBRAP_184_5346 (protein)", "chain": "MVGVIEITGEEAESDLEGVLKRVEELLADPDLDTLIIILEDVSFETAKELIERVGELAKKAGAKNVIVDVESDLNEEEIDELVEIADKYGVRLVVAIPEE"}, "B12": {"name": "GBRAP_95_7043 (protein)", "chain": "DDLVLAAESDAEVLETAVDLGDEEAARRAARRLLELLLELPEDKVKLDLSVESVKVIIEVAKEEFDKETAIEALKKLAKFLTNKEAKEVAEKAIEELEKE"}, "B13": {"name": "GBRAP_160_4066 (protein)", "chain": "EERLKKLEEEIDALIDEAIAMMENETHEERVTIARVLGGEVVLLLSEDESVSDEAEDEADAIMDATVATIEANPDLTQEEITALLTAAGEAIKEALRKHS"}, "B14": {"name": "GBRAP_52_5876 (protein)", "chain": "SLEEAVALLEEAVAATKAGDEEEAEAILKRIVEEFSEETIVAAVKRLAEKVLGKSLEEAEAFFETVERLADVLLEMGKSEETASLMEAIAGATLYKVEQR"}, "B15": {"name": "GBRAP_80_6837 (protein)", "chain": "ARARLEAALARLAELLPELAPELRAMVDRLLAAGVPVEVLADFVEALVELAELDPERAAALLREAIAEVEELLAEGDLEGAIAVIRGYAGDALVEVEELE"}, "B16": {"name": "GBRAP_160_4376 (protein)", "chain": "SKELEELIKEIKELLKEFEEEAKDLTPEEVRILAIGVLSEIAALVFENEAVSEETKDKIMEIIDEAIEEIKKLKDAKPEEIVAVTKEAVEKIIELIKKEI"}, "B17": {"name": "GBRAP_172_5006 (protein)", "chain": "DFKEIKVVIDSEDAEEAMAKIEEVIKEASKYPGAIVAIAARVKNEEDAERVEKYGEELAKKYPNITVRIFVSYDPSLNLEQIAQALLDDAILEREEEEEK"}, "B18": {"name": "GBRAP_95_7018 (protein)", "chain": "EDDQLAADSLAEVLETYVELGDEERARRAAVELVKVIAEDPSVQFPPDLSPEAARIVAEAAKATLSKEEAAAVLERGAASAADPEVRAIFEAALAEVRAE"}, "B19": {"name": "GBRAP_9_7112 (protein)", "chain": "KEELLAFALEELDEARAEVLKVAPEEEKPTVTAIFDDMRAALKAAAADPTTTLEEFLAAFEATAAAAAERIRAETSPLTAAAAESELALLVDEMEEKAEE"}}, "note": "Whole data set: some 4,500 sequences, median “median log2 fold change of GCK-ALFA target abundance (FLAG IP / Myc IP barcode read proportion)” near 0.078, cut for the lowest 2% near -0.6. The list shows a part of the results."}
{"molecular_target": "GABARAP, O95166", "sequence (O95166 whole entry, the tested form may be a part)": "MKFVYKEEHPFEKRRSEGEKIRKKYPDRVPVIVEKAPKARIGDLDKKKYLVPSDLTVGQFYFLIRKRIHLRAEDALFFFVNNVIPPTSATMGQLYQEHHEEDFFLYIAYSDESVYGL", "assay": "median log2 fold change of GCK-ALFA target abundance (FLAG IP / Myc IP barcode read proportion) (log2 ratio); each designed protein is fused to an ALFA-tag nanobody in HEK293 cells to bring the named protein to FLAG-tagged glucokinase (GCK); Myc marks an untargeted standard; higher = target protein stabilised (more abundant)", "details": "target protein: 3xFLAG-MCP-GCK-ALFA reporter; HEK293 landing pad (RPLP)", "how_it_was_run": "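HEK293 landing-pad cells received a recombined binder library fused to the ALFA nanobody and were induced with 2 μg mL^−1 doxycycline, then transfected with a plasmid encoding a FLAG-tagged target and a Myc-tagged standard. Lysates were collected after 48 h for anti-FLAG and anti-Myc immunoprecipitation, and the circular RNA barcodes were reverse transcribed, amplified and sequenced. Target abundance for each binder is the median log2 ratio of FLAG to Myc barcode read proportions. Barcodes had to reach a proportion of at least 10^−7 in both replicates, each binder needed at least 3 barcodes per replicate, a pseudocount of 10^−6 was applied, and the two replicates were pooled.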"}
{"binder": "B1", "median log2 fold change": 0.18}
{"binder": "B2", "median log2 fold change": 0.0975}
{"binder": "B3", "median log2 fold change": 0.104}
{"binder": "B4", "median log2 fold change": 0.0236}
{"binder": "B5", "median log2 fold change": -0.155}
{"binder": "B6", "median log2 fold change": 0.213}
{"binder": "B7", "median log2 fold change": -0.0809}
{"binder": "B8", "median log2 fold change": 0.0073}
{"binder": "B9", "median log2 fold change": -0.0969}
{"binder": "B10", "median log2 fold change": 0.15}
{"binder": "B11", "median log2 fold change": 0.113}
{"binder": "B12", "median log2 fold change": 0.251}
{"binder": "B13", "median log2 fold change": -0.343}
{"binder": "B14", "median log2 fold change": 0.0101}
{"binder": "B15", "median log2 fold change": 0.0199}
{"binder": "B16", "median log2 fold change": 0.0734}
{"binder": "B17", "median log2 fold change": 0.552}
{"binder": "B18", "median log2 fold change": 0.239}
{"binder": "B19", "median log2 fold change": 0.2}
